According to PubChem BioAssay AID488969 (Vanderbilt High Throughput Screening Facility, 2010):
In all, about 110,000 compounds were measured (“z-score”: median about -0.1, highest 2% from about 2 on). Some of the results follow. The source made the active and inactive calls.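 Rule for the calls: active = z-score in the third read window above 3 or below -3; inactive = the rest.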

These compounds were tested against Metabotropic glutamate receptor 8 (Rattus norvegicus) (UniProt P70579) (assay: rat mGluR8 modulators via GIRK flux, primary screen, cell-based, thallium flux, HTS (AID 488969)). Details: HEK293 rat mGluR8, GIRK (G protein-gated inwardly rectifying potassium channel) thallium flux, FluoZin2; at 10 µM; stronger effect = higher value; submaximal glutamate (EC20) added with thallium.
UniProt P70579, sequence (P70579 whole entry, looked up): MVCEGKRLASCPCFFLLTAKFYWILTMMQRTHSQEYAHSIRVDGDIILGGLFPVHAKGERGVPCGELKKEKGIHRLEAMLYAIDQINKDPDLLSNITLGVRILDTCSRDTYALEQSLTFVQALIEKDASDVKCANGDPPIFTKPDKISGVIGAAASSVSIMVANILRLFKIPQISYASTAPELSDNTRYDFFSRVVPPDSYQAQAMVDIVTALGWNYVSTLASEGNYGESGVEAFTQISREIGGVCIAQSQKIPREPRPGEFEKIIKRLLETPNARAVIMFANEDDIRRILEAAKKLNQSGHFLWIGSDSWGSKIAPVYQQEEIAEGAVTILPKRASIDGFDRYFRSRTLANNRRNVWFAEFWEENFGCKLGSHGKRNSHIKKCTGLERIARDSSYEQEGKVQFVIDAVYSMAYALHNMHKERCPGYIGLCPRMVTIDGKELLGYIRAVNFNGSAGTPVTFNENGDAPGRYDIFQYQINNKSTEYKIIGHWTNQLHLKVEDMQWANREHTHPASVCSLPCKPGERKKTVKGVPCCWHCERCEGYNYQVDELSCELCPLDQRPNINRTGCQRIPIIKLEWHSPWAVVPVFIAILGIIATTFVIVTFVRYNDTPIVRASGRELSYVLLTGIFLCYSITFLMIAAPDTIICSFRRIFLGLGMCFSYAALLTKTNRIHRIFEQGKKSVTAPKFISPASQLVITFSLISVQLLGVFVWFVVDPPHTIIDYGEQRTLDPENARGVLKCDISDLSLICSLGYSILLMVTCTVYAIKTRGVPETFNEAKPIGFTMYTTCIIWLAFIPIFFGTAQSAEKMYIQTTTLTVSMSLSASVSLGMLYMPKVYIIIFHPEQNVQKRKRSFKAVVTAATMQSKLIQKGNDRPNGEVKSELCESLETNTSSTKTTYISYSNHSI

| Structure (SMILES) | z-score |
| --- | --- |
| CCOc1cc(C)c(C(C)C)cc1S(=O)(=O)NCc1ccccn1 | -0.429 |
| O=C(NCc1ccco1)c1cccc(S(=O)(=O)N2CCc3ccccc32)c1 | -0.341 |
| O=C1CC(N2CCN(c3nc4ccccc4s3)CC2)C(=O)N1c1cccc(F)c1 (configuration not stated) | -0.276 |
| O=C(NCc1ccco1)c1cc2ccccc2c(=O)o1 | -0.606 |
| Oc1cccc(/C=N/Nc2cc(N3CCOCC3)nc(N3CCOCC3)n2)c1 | -0.242 |
| CCOC(=O)/C=c1\s/c(=C\c2c(OCC)ccc3ccccc23)c(=O)n1CC(=O)NCC1CCCO1 (configuration not stated) | 0.259 |
| CC(C)(C)SCCNC(=O)CSc1ccccc1 | -0.236 |
| CC(NC(=O)C1CCCCC1)c1ccc2c(c1)OCCO2 (configuration not stated) | 0.368 |
| CCn1c(SCC(=O)c2cc(C)n(-c3ccc(C(=O)OC)cc3)c2C)nnc1-c1cccnc1 | 0.00946 |
| O=C(CSc1ncccc1-c1nc2ccccc2[nH]1)NC1CC1 | -0.0854 |
| O=C(NCC1CCCO1)C1CCN(S(=O)(=O)c2cccnc2)CC1 (configuration not stated) | 0.103 |
| COc1ccc(NCc2nnc(SCC(=O)NCc3ccco3)n2-c2ccccc2OC)cc1 | -0.215 |
| CCOC(=O)c1nnn(CC(=O)Nc2ccccc2OC)c1C(=O)OCC | -0.326 |
| O=C(Nc1ccc(Cl)cc1)C1CC=CCC1C(=O)OCC(F)(F)C(F)F (configuration not stated) | 0.127 |
| CCCCCCSC1=C(C#N)C(=O)NC2(CCCCC2)S1 | 0.941 |
| c1ccc(Cn2c(SCc3cn4cccnc4n3)nnc2-c2ccco2)cc1 | 0.882 |
| CN(C)C(=O)CSC1c2ccccc2C(=O)N1c1ccccc1 (configuration not stated) | -0.138 |
| CN(c1ccc(C(=O)NCCC2=CCCCC2)cc1)S(C)(=O)=O | 0.45 |
| C/C(=C\c1ccccc1)CN(C)CCN(C)C | -0.122 |
| Cc1ccnc(NC(=O)CCC(=O)N(CC(=O)NC(C)(C)C)C2CCCC2)c1 | -0.259 |
| CC1=NN(C(C)C)C(=O)C1 | -0.12 |
| COc1ccc(C(=O)/C=C/N(C)C)cc1 | -0.22 |
| CCN(CC)CCNC(=O)C1c2ccccc2C(=O)N(C)C1c1cn(C)c2ccccc12 (configuration not stated) | 0.724 |
| COc1ccnc(N=CNOCc2ccc(F)cc2Cl)c1C#N | 0.442 |

| Structure (SMILES) | z-score |
| --- | --- |
| CC(=O)OC(C(=O)NC1CCCCC1)c1ccncc1 (configuration not stated) | 0.0327 |
| CN1CCN(c2ccc(NC(=O)CSc3ccccc3)cc2F)CC1 | 0.0495 |
| CC(C)CCOc1ccc(C2=NNC(=O)CC2)cc1 | -0.017 |
| COC(=O)CNC(=O)c1cn(CC(C)C)c(=O)c2cc(OC)c(OC)cc12 | 0.67 |
| Cc1ccnc(NC(=O)Cn2ccc([N+](=O)[O-])n2)c1 | 1.6 |
| COc1ccc(N(CC(=O)NCCSc2ccccn2)S(C)(=O)=O)cc1 | -0.246 |
| O=[N+]([O-])c1cc(S(=O)(=O)N2CCCCCC2)ccc1F | -0.312 |
| O=C(CN1C(=O)NC2(CCCc3ccccc32)C1=O)N1CCc2ccccc2C1 (configuration not stated) | -0.467 |
| C[C@H](NC(=O)OC(C)(C)C)C(=O)NCC1CCC(C(=O)O)CC1 (some centres not stated) | 0.0674 |
| COc1ccccc1/C=C/C(=O)c1ccc(NC(C)=O)cc1 | -0.12 |
| COc1cccc(CNc2ccc3c(c2)CCC3)c1 | -0.0994 |
| Cc1cccc(Nc2nc(N)c([N+](=O)[O-])c(N3CCOCC3)n2)c1 | -0.442 |
| O=C(Nc1ccccc1N1CCCCC1)c1ccccc1F | -0.336 |
| Cc1ccc(NC(=O)COC(=O)C2=COCCO2)cc1 | -0.19 |
| CC(=O)NC12CC3CC(C1)CC(C(=O)Nc1nccs1)(C3)C2 | -0.116 |
| COc1ccc2oc(=O)c(C(=O)NCc3cccnc3)cc2c1 | -0.102 |
| COc1ccccc1C(=O)N1CCN(C2CCN(Cc3ccccc3)CC2)CC1 | -0.0811 |
| CSc1nc(C)cc(SCC(=O)Nc2ccc(Cl)cc2Cl)n1 | -0.217 |
| COC(=O)C1=C(C(=O)OC)C(c2ccccc2O)c2sc(=O)[nH]c2S1 (configuration not stated) | -1.12 |
| CCOC(=O)c1c(C)n(C)c2ccc(OCC(O)CN3C(=O)c4ccccc4S3(=O)=O)cc12 (configuration not stated) | 1.88 |
| COc1nc(Nc2cccc(C(F)(F)F)c2)nc(OC)n1 | -0.42 |
| COc1ccccc1NC(=S)N1CCN(C/C=C/c2ccccc2)CC1 | -0.205 |
| CCCN(CC(=O)Nc1ccc(C)cc1Br)CC(=O)Nc1ccc(F)c(F)c1F | -0.174 |
| COc1ccc(-c2cc(C(F)(F)F)nc(SCC(=O)Nc3sc4c(c3C#N)CCC4)n2)cc1 | -0.24 |

| Structure (SMILES) | z-score |
| --- | --- |
| CCN1CCN(Cc2nc3c(c(=O)n(C)c(=O)n3C)n2Cc2cccc3ccccc23)CC1 | 0.0876 |
| COC(=O)c1cccc(Oc2nc3c(c(=O)n(C)c(=O)n3C)n2C(C)C)c1 | -0.403 |
| O=C(NCCN1CCN(c2ccccc2)CC1)C1CCCN(S(=O)(=O)c2cnc[nH]2)C1 (configuration not stated) | -0.179 |
| CN(CC(=O)NC(=O)NCc1ccccc1)Cc1cccc(Cl)c1Cl | 0.0661 |
| O=C(Cc1ccc(Br)cc1)N1CCN(c2ccccc2O)CC1 | 0.0805 |
| COc1cc(CN(C(=O)c2ccco2)c2ccc(C)cc2)ccc1O | -2.06 |
| COc1cc(Cl)c(C)cc1NC(=O)c1cc(S(=O)(=O)N(C)C)ccc1N1CCCC1 | -1.35 |
| CCCOc1c(OC)cccc1C1CC(=O)Nc2cc3c(cc21)OCO3 (configuration not stated) | -0.508 |
| COC(=O)c1ccccc1NC(=O)COC(=O)c1cccnc1 | -0.181 |
| CCOc1ccc(-c2nnn(CC#N)n2)cc1OC | 0.567 |
| COc1cccc(N2CC(O)=C(c3nc4ccccc4c(=O)[nH]3)C2=N)c1 | 0.264 |
| CCCC(=O)C1=C(O)C(C(=O)OC)C(C)(C)CC1=N (configuration not stated) | 0.401 |
| Cc1cc(C)n(C/C=C/Cn2nc(C)cc2C)n1 | -0.482 |
| COc1cc(C)ccc1S(=O)(=O)N1CCN(C23CC4CC(CC(C4)C2)C3)CC1 | 1.95 |
| CCOC(=O)CON1C(=O)C(C)(C)N(OCC(=O)OCC)C(=O)C1(C)C | 0.749 |
| COc1ccc(C(=O)C[N+]2(C)CCOCC2)cc1 | 0.0424 |
| CCN1C(c2ccccc2)=C(c2ccccc2)S/C1=C\C=C1/SC(=S)N(C)C1=O | -0.267 |
| COc1ccccc1-c1nnc(NC(=O)OCC(C)C)s1 | -0.329 |
| C/C(=N\NC(=O)Cn1c(C)nc2ccccc21)c1cccs1 | -0.134 |
| C=CCn1c(NC)cc(=O)n(C)c1=O | 0.549 |
| COc1cc(C(=O)NCCOc2ccccc2C)c(Br)c(OC)c1OC | 0.148 |
| Oc1ccc(Cl)cc1-c1cc(C(F)(F)C(F)F)nc(-c2ccccc2)n1 | -0.202 |
| CC1CCCCN1C(=O)COc1ccc(NC(=O)c2ccco2)cc1 (configuration not stated) | 0.31 |
| Cc1ccccc1NC(=S)c1nc2ccccc2[nH]1 | active: 10.9 |
